Results published in PMC4336329 (PLoS ONE, 2015).
The campaign covered roughly 310,000 compounds. About 2,200 (0.71%) showed an effect of 50% or more. The effect is printed as a negative number. Some of the results follow.

Target: human ether-à-go-go-related gene (hERG) potassium channel (human, UniProt Q12809)
Experiment: primary screen, population patch clamp on CHO cells stably expressing hERG

Sequence of human ether-à-go-go-related gene (hERG) potassium channel (Q12809 whole entry, looked up): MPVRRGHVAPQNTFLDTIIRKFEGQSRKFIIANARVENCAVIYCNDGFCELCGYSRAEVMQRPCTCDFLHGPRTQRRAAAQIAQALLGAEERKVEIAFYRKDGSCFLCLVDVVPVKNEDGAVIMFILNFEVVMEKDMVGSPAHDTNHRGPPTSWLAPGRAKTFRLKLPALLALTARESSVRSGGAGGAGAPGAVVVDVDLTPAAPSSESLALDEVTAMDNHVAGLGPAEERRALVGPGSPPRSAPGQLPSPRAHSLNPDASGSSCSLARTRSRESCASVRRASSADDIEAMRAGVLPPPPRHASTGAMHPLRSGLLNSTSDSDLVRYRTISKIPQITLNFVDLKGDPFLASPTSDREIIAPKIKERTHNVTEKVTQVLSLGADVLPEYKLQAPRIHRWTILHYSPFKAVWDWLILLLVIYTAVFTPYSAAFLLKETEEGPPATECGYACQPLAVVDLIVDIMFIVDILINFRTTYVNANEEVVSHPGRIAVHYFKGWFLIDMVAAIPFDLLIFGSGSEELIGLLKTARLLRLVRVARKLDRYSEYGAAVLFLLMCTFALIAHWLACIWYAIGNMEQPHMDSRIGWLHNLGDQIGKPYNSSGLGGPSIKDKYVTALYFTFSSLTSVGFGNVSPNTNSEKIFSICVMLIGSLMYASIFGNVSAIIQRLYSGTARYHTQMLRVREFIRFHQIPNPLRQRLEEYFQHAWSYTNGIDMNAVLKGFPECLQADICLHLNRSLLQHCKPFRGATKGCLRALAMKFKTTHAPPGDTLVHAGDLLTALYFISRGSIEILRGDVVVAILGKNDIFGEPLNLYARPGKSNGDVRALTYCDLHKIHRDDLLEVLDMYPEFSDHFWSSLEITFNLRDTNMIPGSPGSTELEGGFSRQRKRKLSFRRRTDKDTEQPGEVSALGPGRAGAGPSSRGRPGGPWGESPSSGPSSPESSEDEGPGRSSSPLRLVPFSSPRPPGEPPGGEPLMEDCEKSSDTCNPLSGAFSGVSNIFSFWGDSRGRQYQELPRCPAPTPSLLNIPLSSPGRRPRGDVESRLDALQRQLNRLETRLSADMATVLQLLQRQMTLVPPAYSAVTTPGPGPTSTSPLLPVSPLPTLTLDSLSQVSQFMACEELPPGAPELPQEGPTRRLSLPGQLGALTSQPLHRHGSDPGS

How did the “hERG current change (%, negative = inhibition) at 1uM” value turn out when `O=C(O)C1CC(=O)N(CCc2ccccc2)C1` (stereo not drawn) was run?
Its value is 11%.

Which “hERG current change (%, negative = inhibition) at 1uM” value does the source give for `O=C(CN1CCC(NC(=O)c2ccccc2F)CC1)Nc1ccc2c(c1)OCO2` here?
Its value is 1.39%.

For `O=C(Nc1ccc(F)cc1F)N1CCCN(c2ccc(C(F)(F)F)cn2)CC1`, which “hERG current change (%, negative = inhibition) at 1uM” value is on record?
The value was 0.582%.

Which “hERG current change (%, negative = inhibition) at 1uM” value does the source give for `Cn1c(=O)c2cc(S(=O)(=O)NC(Cc3ccccc3)C(=O)NCc3ccco3)ccc2n(C)c1=O` (stereo not drawn) here?
Its value is -8.41%.

With `CC1CC(C)CN(c2cc(=O)n(Cc3ccc(F)cc3)c(=O)[nH]2)C1` (stereo not drawn) as the compound, how does the “hERG current change (%, negative = inhibition) at 1uM” value read?
The value was 17.9%.

Which “hERG current change (%, negative = inhibition) at 1uM” value does the source give for `CCN(Cc1ccccc1)S(=O)(=O)c1ccc(C(=O)N(CCCN(C)C)c2nc3c(C)c(C)ccc3s2)cc1.Cl` here?
Its value is -1.23%.

How did the “hERG current change (%, negative = inhibition) at 1uM” value turn out when `COc1cc(C2=NOC(C(=O)Nc3cccnc3)C2)cc(OC)c1OC` (stereo not drawn) was run?
The value was 11.3%.

With `COc1ccc(CCNC(=O)C2CCCN2C(=O)Nc2ccccc2)cc1OC` (stereo not drawn) as the compound, how does the “hERG current change (%, negative = inhibition) at 1uM” value read?
The value was 13.9%.

How did the “hERG current change (%, negative = inhibition) at 1uM” value turn out when `Cn1cnnc1SCCn1c(N2CCCCC2)nc2c1c(=O)[nH]c(=O)n2C` was run?
Its value is 0.157%.

How did the “hERG current change (%, negative = inhibition) at 1uM” value turn out when `Cc1ccc(-c2nnc(N3CCN(c4ccccn4)CC3)c3ccccc23)cc1` was run?
The value was 11.1%.

`CN(Cc1nccn1C)C(=O)CCc1nnc(CCC2CCCCC2)o1` was tested. Which “hERG current change (%, negative = inhibition) at 1uM” value did it give?
The value was -3.81%.

How did the “hERG current change (%, negative = inhibition) at 1uM” value turn out when `CCn1cc(SCC(=O)NCc2ccc3c(c2)OCO3)c2ccccc21` was run?
Its value is 13.5%.

`CCOC(=O)NC(=O)CSc1nc(C)cc(C(F)(F)F)c1C#N` was tested. Which “hERG current change (%, negative = inhibition) at 1uM” value did it give?
Its value is 2.33%.

With `O=C1N[C@H](Cc2ccccc2)C(=O)N2[C@@H]3[C@H](C[C@@H]12)c1ccccc1N3OOSc1ccccc1` as the compound, how does the “hERG current change (%, negative = inhibition) at 1uM” value read?
The value was 6.05%.

How did the “hERG current change (%, negative = inhibition) at 1uM” value turn out when `O=C1CNC(=S)N1Cc1ccccc1` was run?
Its value is 28.9%.

Which “hERG current change (%, negative = inhibition) at 1uM” value does the source give for `Cc1ccc(NC(=O)C2CCN(C(=O)c3cccs3)CC2)c(C)c1` here?
Its value is 13.6%.

Which “hERG current change (%, negative = inhibition) at 1uM” value does the source give for `CC1CCC(NC(=O)C(NC(=O)c2ccccc2)C(C)C)CC1` (stereo not drawn) here?
The value was 6.61%.

With `O=C(N/N=C/c1ccc(N2CCOCC2)s1)c1ccc(NS(=O)(=O)c2cccs2)cc1` as the compound, how does the “hERG current change (%, negative = inhibition) at 1uM” value read?
The value was 6.28%.

`CCCN(CC1CC1)C(=O)CCc1nnc(C(OC)c2ccccc2)o1` (stereo not drawn) was tested. Which “hERG current change (%, negative = inhibition) at 1uM” value did it give?
Its value is 10%.

`Cc1nc2ccc(C(=O)N(C)CC3CCCN(CCc4ccc(Cl)cc4)C3)cc2[nH]1` (stereo not drawn) was tested. Which “hERG current change (%, negative = inhibition) at 1uM” value did it give?
Its value is -0.55%.

How did the “hERG current change (%, negative = inhibition) at 1uM” value turn out when `O=C(c1cc2c(F)cccc2s1)N1CCCC1` was run?
The value was 13%.

For `Cc1cc(F)c(F)c(C(=O)N2CCOCC2)c1`, which “hERG current change (%, negative = inhibition) at 1uM” value is on record?
Its value is 5.97%.

How did the “hERG current change (%, negative = inhibition) at 1uM” value turn out when `Cc1ccc(-n2ncc3c(=O)n(CC(=O)N4CCCCCC4)cnc32)cc1` was run?
Its value is 10.9%.

With `CCCc1cc(=O)[nH]c(SCC(=O)Nc2ccc(Cl)c(S(=O)(=O)N3CCOCC3)c2)n1` as the compound, how does the “hERG current change (%, negative = inhibition) at 1uM” value read?
The value was 10.8%.
